Source: the supplement of paper PMC7826260
The list shows a part of the results. The data describe in vitro nicking of single-stranded DNA by Rep domains for 1 h at 37 °C with 3 µM enzyme; only the middle of the 90-letter strands is printed. Numbers give uncut DNA relative to the enzyme-free pool, as log2; more negative means more cut, near 0 not cut, and no call is made. Because reads are shares of a total, they shift together; uncut strands gain when others are lost, and binding without cutting may add a little.

Key:
Experiment in all cases: uncleaved DNA left, log2 of reads against the no-enzyme library (log2 ratio); higher = less cleavage (more negative = more Rep cleavage of the k-mer); sequences stand for … in CTCGTCCG…ACCGGAGA
[1] = test system: T1, Rep nickase domain of Muscovy duck circovirus
T1 sequence (protein, residues 1-111, tag omitted): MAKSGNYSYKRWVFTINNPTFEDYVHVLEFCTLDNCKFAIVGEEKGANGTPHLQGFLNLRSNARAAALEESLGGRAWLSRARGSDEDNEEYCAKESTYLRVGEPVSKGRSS
Protocol: (§1)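 A pool of 90-nt single-stranded DNAs with seven random bases just before the constant AC of the nick site (name = the seven bases) was cut by 3 µM recombinant His6-SUMO-tagged Rep nickase domain (300 nM DNA, 50 mM HEPES pH 8.0, 50 mM NaCl, 1 mM MnCl2, 1 h, 37 °C, three replicates). Uncut DNA was amplified and sequenced.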

[2] = test system: T2, Rep nickase domain of banana bunchy top virus
T2 sequence (protein, residues 1-94, tag omitted): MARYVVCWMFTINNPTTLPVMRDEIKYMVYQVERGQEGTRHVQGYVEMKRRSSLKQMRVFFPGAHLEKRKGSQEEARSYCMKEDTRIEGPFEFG
Protocol: as §1

[3] = test system: T3, Rep nickase domain of cabbage leaf curl virus
T3 sequence (protein, residues 1-116, tag omitted): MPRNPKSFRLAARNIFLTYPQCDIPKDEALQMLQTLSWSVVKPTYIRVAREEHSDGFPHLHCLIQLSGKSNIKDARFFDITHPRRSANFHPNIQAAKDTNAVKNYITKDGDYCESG
Protocol: as §1

[4] = test system: T4, Rep nickase domain of chickpea chlorotic dwarf virus
T4 sequence (protein, residues 1-124, tag omitted): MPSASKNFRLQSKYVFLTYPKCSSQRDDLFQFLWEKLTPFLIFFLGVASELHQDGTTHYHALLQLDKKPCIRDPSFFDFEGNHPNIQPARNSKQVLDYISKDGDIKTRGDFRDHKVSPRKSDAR
Protocol: as §1

[5] = test system: T5, Rep nickase domain of faba bean necrotic yellows virus
T5 sequence (protein, residues 1-98, tag omitted): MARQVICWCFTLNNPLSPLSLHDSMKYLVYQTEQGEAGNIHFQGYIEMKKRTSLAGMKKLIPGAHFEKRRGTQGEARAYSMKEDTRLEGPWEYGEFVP
Protocol: as §1

[6] = test system: T6, Rep nickase domain of maize striate mosaic virus
T6 sequence (protein, residues 1-117, tag omitted): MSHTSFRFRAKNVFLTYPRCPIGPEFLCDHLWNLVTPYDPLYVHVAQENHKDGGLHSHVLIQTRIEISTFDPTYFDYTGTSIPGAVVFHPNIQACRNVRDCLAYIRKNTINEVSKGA
Protocol: as §1

[7] = test system: T7, Rep nickase domain of porcine circovirus 2
T7 sequence (protein, residues 2-116, tag omitted): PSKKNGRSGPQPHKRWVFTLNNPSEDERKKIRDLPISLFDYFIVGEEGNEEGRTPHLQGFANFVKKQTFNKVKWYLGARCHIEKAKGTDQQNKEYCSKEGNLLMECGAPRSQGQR
Protocol: as §1

[8] = test system: T8, Rep nickase domain of tomato golden mosaic virus
T8 sequence (protein, residues 1-124, tag omitted): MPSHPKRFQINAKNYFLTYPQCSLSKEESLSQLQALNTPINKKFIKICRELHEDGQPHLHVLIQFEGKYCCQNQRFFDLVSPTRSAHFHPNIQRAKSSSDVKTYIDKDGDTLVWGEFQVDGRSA
Protocol: as §1

[9] = test system: T9, Rep nickase domain of tomato yellow leaf curl virus
T9 sequence (protein, residues 1-136, tag omitted): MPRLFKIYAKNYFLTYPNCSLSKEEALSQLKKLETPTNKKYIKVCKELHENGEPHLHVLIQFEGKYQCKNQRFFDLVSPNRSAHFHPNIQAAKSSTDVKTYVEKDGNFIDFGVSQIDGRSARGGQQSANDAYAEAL
Protocol: as §1

[10] = test system: T10, Rep nickase domain of wheat dwarf virus
T10 sequence (protein, residues 1-137, tag omitted): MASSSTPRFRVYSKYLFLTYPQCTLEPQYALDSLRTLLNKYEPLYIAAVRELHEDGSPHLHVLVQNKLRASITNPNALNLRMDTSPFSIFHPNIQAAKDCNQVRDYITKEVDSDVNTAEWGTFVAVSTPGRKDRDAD
Protocol: as §1

Sequence | uncleaved DNA left (log2) [1] | uncleaved DNA left (log2) [2] | uncleaved DNA left (log2) [3] | uncleaved DNA left (log2) [4] | uncleaved DNA left (log2) [5] | uncleaved DNA left (log2) [6] | uncleaved DNA left (log2) [7] | uncleaved DNA left (log2) [8] | uncleaved DNA left (log2) [9] | uncleaved DNA left (log2) [10]
AAGCTAC | 0.0721 | 0.0716 | 0.11 | -0.762 | 0.162 | 0.604 | 0.136 | 0.117 | 0.0631 | 0.184
GAACCTC | 0.0247 | 0.0702 | 0.254 | 0.282 | 0.0868 | 1.07 | -0.0308 | 0.0335 | 0.121 | 0.149
TTCACAA | 0.107 | 0.118 | 0.294 | -0.1 | -0.0575 | 0.25 | 0.0765 | 0.0148 | 0.0815 | 0.232
TTGCAGT | -0.137 | -0.0872 | -0.884 | -0.523 | 0.0307 | -1.18 | 0.028 | 0.0126 | -0.0328 | -0.0908
CACCACC | -0.183 | 0.00567 | -0.0345 | -1.27 | 0.0105 | -0.573 | -0.198 | -0.103 | -0.0434 | 0.0569
TCCGGCC | -0.0149 | 0.0853 | 0.302 | 0.25 | -0.00531 | 0.0661 | 0.0473 | -0.00928 | -0.08 | -0.0276
AACTACG | -0.00439 | 0.154 | -0.815 | -0.74 | 0.119 | -1.01 | 0.0822 | 0.0416 | -0.0778 | -0.0264
CATGGTT | -0.0336 | -0.206 | -0.0728 | -0.033 | -0.19 | 0.871 | -0.215 | -0.194 | -0.224 | -0.243
GGTCCCC | -0.0252 | -0.0223 | 0.378 | 0.886 | -0.0697 | 1.47 | -0.215 | -0.155 | 0.0965 | 0.104
GGGGCAT | 0.0674 | 0.0398 | 0.907 | 2.11 | 0.000192 | 2.34 | 0.178 | 0.0158 | -0.244 | 0.147
TGCCGTT | 0.0904 | 0.107 | 0.00405 | -0.772 | -0.101 | -0.438 | -0.142 | 0.119 | 0.149 | 0.0285
TGAACGC | 0.0422 | 0.068 | -0.0196 | -0.136 | 0.0979 | -0.567 | 0.0594 | -0.0368 | 0.104 | 0.0523
AACACAG | -0.0738 | -0.0044 | -0.687 | -0.61 | -0.0442 | -1.16 | 0.186 | -0.0511 | -0.0212 | -0.0911
TACCAAG | 0.116 | 0.0682 | -0.756 | -0.738 | -0.0335 | -1.14 | -0.107 | 0.177 | 0.0731 | 0.0164
ACGCAGA | 0.0694 | 0.0265 | -0.264 | -0.13 | 0.2 | -0.811 | 0.246 | 0.124 | 0.0221 | 0.0295
GGCTTGC | -0.0297 | 0.0054 | 0.0569 | 0.548 | -0.0213 | 0.684 | 0.148 | 0.0664 | 0.037 | 0.0597
ACGATAT | -0.0243 | -0.0773 | -0.00652 | -0.487 | -0.0681 | -0.185 | 0.0479 | 0.0956 | 0.0251 | 0.0466
TTGCGAG | 0.0565 | -0.0654 | -0.484 | -0.234 | 0.0483 | -0.812 | 0.111 | -0.0719 | 0.0989 | -0.0951
GATCCAA | 0.104 | 0.174 | 0.32 | 0.598 | 0.152 | 0.6 | 0.102 | 0.106 | 0.184 | 0.204
GAGCAGT | -0.0208 | 0.0168 | 0.197 | 0.852 | 0.0545 | 0.887 | -0.969 | -0.0343 | 0.0776 | 0.0537
CTTTCAA | -0.0557 | 0.0766 | -0.0295 | -0.149 | -0.0594 | -0.715 | -0.0399 | -0.0938 | 0.0021 | 0.0751
AGACGCT | -0.00494 | -0.00966 | 0.521 | 0.264 | -0.009 | 0.983 | 0.0784 | 0.0562 | -0.0721 | 0.0154
CTTTGTA | -0.299 | -0.127 | -0.486 | -1.59 | -0.102 | -1.06 | -0.581 | -0.282 | -0.109 | -0.243
TTGGCAG | 0.0843 | 0.131 | -0.424 | -0.241 | 0.0683 | -0.825 | 0.238 | 0.0937 | 0.04 | 0.0167
AGAGGGA | 0.124 | 0.131 | 0.453 | 1.04 | 0.097 | 1.25 | 0.202 | 0.17 | 0.0781 | 0.118
GTCATGC | 0.082 | -0.0242 | 0.0702 | 0.292 | -0.188 | -0.00979 | -0.0414 | 0.0368 | -0.0857 | -0.0566
ATGAGAC | -0.00274 | -0.0183 | 0.261 | 0.781 | -0.0198 | 0.0979 | 0.238 | 0.00851 | -0.0458 | 0.0498
GACCATC | 0.00836 | 0.109 | 0.379 | 0.726 | 0.0551 | 0.458 | 0.0274 | -0.0692 | 0.0163 | 0.0994
CGGCAGA | 0.0882 | 0.0274 | 0.173 | 0.664 | 0.133 | 0.658 | 0.21 | -0.0657 | -0.0678 | 0.108
CTCCATG | 0.0235 | -0.00387 | -0.707 | -0.737 | -0.26 | -1.13 | 0.136 | -0.176 | -0.0816 | -0.191
